Screen size: about 310,000 compounds; about 2,200 (0.71%) showed an effect of 50% or more. The effect is printed as a negative number. Some of the results follow.
The molecules below were run against human ether-à-go-go-related gene (hERG) potassium channel (human, UniProt Q12809) (assay: primary screen, population patch clamp on CHO cells stably expressing hERG).
Chain of human ether-à-go-go-related gene (hERG) potassium channel (Q12809 whole entry, looked up): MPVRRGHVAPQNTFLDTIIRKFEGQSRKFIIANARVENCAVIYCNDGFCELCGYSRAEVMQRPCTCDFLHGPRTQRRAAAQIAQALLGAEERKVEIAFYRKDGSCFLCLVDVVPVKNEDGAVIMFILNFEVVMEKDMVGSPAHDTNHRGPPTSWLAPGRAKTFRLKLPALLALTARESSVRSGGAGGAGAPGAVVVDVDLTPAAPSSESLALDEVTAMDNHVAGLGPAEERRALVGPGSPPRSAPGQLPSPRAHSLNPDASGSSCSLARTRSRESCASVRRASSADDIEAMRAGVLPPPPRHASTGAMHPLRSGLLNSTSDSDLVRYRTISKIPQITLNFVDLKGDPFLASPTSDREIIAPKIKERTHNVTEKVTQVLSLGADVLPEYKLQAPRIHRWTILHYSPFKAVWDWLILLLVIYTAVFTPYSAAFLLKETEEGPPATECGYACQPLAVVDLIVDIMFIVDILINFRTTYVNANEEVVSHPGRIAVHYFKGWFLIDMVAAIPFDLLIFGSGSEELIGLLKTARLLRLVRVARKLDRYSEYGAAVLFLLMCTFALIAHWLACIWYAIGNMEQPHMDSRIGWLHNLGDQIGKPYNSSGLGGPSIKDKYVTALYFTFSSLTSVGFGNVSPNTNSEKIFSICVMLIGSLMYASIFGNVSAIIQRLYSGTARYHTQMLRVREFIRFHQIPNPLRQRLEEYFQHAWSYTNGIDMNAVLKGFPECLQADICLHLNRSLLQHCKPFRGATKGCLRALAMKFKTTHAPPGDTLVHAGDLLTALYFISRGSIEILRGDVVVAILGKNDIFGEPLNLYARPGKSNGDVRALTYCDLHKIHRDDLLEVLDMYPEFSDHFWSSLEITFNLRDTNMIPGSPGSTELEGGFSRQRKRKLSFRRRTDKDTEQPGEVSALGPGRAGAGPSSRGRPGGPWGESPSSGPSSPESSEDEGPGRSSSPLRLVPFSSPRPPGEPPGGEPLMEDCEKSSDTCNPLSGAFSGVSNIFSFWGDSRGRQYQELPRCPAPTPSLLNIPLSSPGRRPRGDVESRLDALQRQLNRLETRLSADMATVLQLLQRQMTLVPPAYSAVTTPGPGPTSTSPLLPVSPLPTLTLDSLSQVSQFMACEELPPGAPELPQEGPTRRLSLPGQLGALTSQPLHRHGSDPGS
With `CCc1cc(-c2n[nH]c(C)c2-c2nc3ccccc3s2)c(O)cc1OCC(=O)NN` the “hERG current change (%, negative = inhibition) at 1uM” value was 0.0876%.
`CCOCc1c(C(=O)Nc2ccc(OC)nc2)oc2ccccc12` was tested, and the “hERG current change (%, negative = inhibition) at 1uM” value was 1.82%.
In the case of `Cc1ccc(S(=O)(=O)/N=C/c2c(O)ccc3ccccc23)cc1`, the “hERG current change (%, negative = inhibition) at 1uM” value is reported as 12.8%.
With `O=C(CN1c2ccccc2Sc2ccccc21)NNC(=O)Nc1ccc(Cl)cc1` the “hERG current change (%, negative = inhibition) at 1uM” value was 4.7%.
In the case of `CCOc1ccc(-c2nc3c(s2)CCc2onc(-c4ccc(OC)cc4)c2-3)cc1`, the “hERG current change (%, negative = inhibition) at 1uM” value is reported as 8.21%.
For `O=C(CNC(=O)c1ccc2c(c1)OCO2)Nc1cccc(Br)c1`, the “hERG current change (%, negative = inhibition) at 1uM” value was 8.98%.
In the case of `Cc1ccc(C(=O)NCCc2nnc3ccc(SCC(=O)Nc4ccccc4F)nn23)cc1`, the “hERG current change (%, negative = inhibition) at 1uM” value is reported as 12.9%.
In the case of `CNc1nc(OCCNC(=O)Nc2ccccc2)nc(N2CCOCC2)n1`, the “hERG current change (%, negative = inhibition) at 1uM” value is reported as 24.7%.
With `Cc1ccnc(NC(=O)Cn2c(=O)oc3cc(S(=O)(=O)N4CCCC4)ccc32)c1` the “hERG current change (%, negative = inhibition) at 1uM” value was 12.7%.
`COc1ccc(OCC(=O)Nc2ccc3c(c2)nc(CCN2CCN(C)CC2)n3C)cc1` was tested, and the “hERG current change (%, negative = inhibition) at 1uM” value was 13.3%.
In the case of `O=C(Nc1ccccc1N1CCOCC1)c1cc(Br)c(Br)s1`, the “hERG current change (%, negative = inhibition) at 1uM” value is reported as 2.27%.
For `O=C(Nc1ccc(CN2CCS(=O)(=O)CC2)cc1)c1ccc(Cl)cc1`, the “hERG current change (%, negative = inhibition) at 1uM” value was -3.42%.
For `Cc1nc(-c2c(C(=O)NNC(=O)Nc3c(C)cccc3C)noc2C)cs1`, the “hERG current change (%, negative = inhibition) at 1uM” value was 1.34%.
With `CC(C)=NNc1cc([N+](=O)[O-])cc2c1C(=O)N(C)S2=O` (stereo not drawn) the “hERG current change (%, negative = inhibition) at 1uM” value was 6.37%.
For `COc1ccc(NC(=O)NCCCN2CCCC2=O)c(OC)c1`, the “hERG current change (%, negative = inhibition) at 1uM” value was 14.9%.
With `COc1cccc(NC(=O)CCCn2nc(C)c3c(C)n(-c4ccccc4)nc3c2=O)c1` the “hERG current change (%, negative = inhibition) at 1uM” value was 7.75%.
For `Cc1ccc(C)c(S(=O)(=O)N2CCN(C(=O)Cc3ccc(S(=O)(=O)N4CCOCC4)s3)CC2)c1`, the “hERG current change (%, negative = inhibition) at 1uM” value was 7.6%.
In the case of `Cc1cccc(OCc2nnc(SCC(=O)c3ccccc3)o2)c1`, the “hERG current change (%, negative = inhibition) at 1uM” value is reported as 8.21%.
With `O=C(NCCO)c1ccc(-c2nnc(Nc3ccc(O)cc3)c3ccccc23)cc1` the “hERG current change (%, negative = inhibition) at 1uM” value was 14.2%.
In the case of `O=C1N/C(=C\c2ccsc2)C(=O)N1Cc1ccc(F)cc1`, the “hERG current change (%, negative = inhibition) at 1uM” value is reported as 10.2%.
`Cc1cc(Br)ccc1SCC(=O)NCC(c1ccco1)N1CCCCC1` (stereo not drawn) was tested, and the “hERG current change (%, negative = inhibition) at 1uM” value was 12.2%.
For `CCCCn1nnnc1NCc1cc(OC)c(OC)c(OC)c1`, the “hERG current change (%, negative = inhibition) at 1uM” value was 1.2%.
`Cc1ccccc1C1CC(c2ccccc2)Nc2ncnn21` (stereo not drawn) was tested, and the “hERG current change (%, negative = inhibition) at 1uM” value was 7.13%.
`Cc1ccc(NC(=S)Nc2cccc(S(=O)(=O)Nc3c(C)n(C)n(-c4ccccc4)c3=O)c2)cc1` was tested, and the “hERG current change (%, negative = inhibition) at 1uM” value was 11%.
